# PubChem BioAssay AID588855 (National Center for Advancing Translational Sciences (NCATS), 2011)
# About 5,000 (1.2%) of roughly 410,000 compounds were called active. Inconclusive results, whose numbers are uncertain, are shown with a selection of clear calls. The call rests on the fitted dose curve; in most records, active means well fitted inhibition curve with a large enough effect; inconclusive means small, poorly fitted or top-dose-only effect; inactive means no such curve, though single readings can be large or run the other way. A potency beside an inconclusive call is a rough fit, not a confirmed value.
# Assay: qHTS for Inhibitors of TGF-b; further: nearly all actives have a fitted effect of over 65% in size
# Conditions: HepG2 CAGA-GFP TGF-b/SMAD3 reporter, GFP fluorescence, 18 h, TGF-beta stimulated, 500 pg/mL final; series mostly up to 46.1 µM; activity, negative = inhibition: at the top concentration
# Procedure, shortened: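 Inhibition of TGF-beta-driven CAGA-GFP reporter expression in HEPG2 cells is measured by cellular GFP fluorescence after 18 h stimulation with 500 pg/mL recombinant TGF-beta in 1% FBS medium at 37 degrees C.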
# On the % scale 0 is the no-effect control and ±100 the full control effect; potency means the concentration at half of the fitted maximal effect; tags describe the fitted curve by direction and shape.
SMILES,Potency,"activity, negative = inhibition"
COc1ccc(COc2cc(-c3cccc(OC)c3)nc3ccc(N)cc23)cc1,active: 7.08 µM,–
CC(C(=O)N1CCN(Cc2ccc3c(c2)OCO3)CC1)n1cc([N+](=O)[O-])cn1 (centres undefined),"inconclusive: 11.2 µM [inhibitor, partial curve, poor fit]",–
O=S(=O)(c1cccc(S(=O)(=O)N2CCC(Cc3ccccc3)CC2)c1)N1CCOCC1,"inconclusive: 35.5 µM [inhibitor, single point]",–
O=C(NC1=NCCS1)c1cc(-c2ccccc2)nn1-c1ccccc1,"inconclusive: 0.112 µM [inhibitor, full curve, poor fit]",–
COCCCNC(=O)Cc1c(C)c2c(cc(C)c3c(C(C)(C)C)coc32)oc1=O,"inconclusive: 20 µM [inhibitor, partial curve, poor fit]",–
Cc1cccc(NC(=O)c2c(C)nc3ccccn23)c1,"inconclusive: 2.51 µM [inhibitor, partial curve, poor fit]",–
Cc1ccc(NC(=O)c2nc(S(C)(=O)=O)ncc2N(Cc2cccc(F)c2)Cc2ccco2)cc1C,–,inactive: 13.2%
CCc1nn(CC(=O)NCc2ccco2)c(=O)c2cc3cc(F)ccc3n12,–,inactive: -15.9%
CN(C)S(=O)(=O)c1cccc(NC(=O)c2cccc(S(=O)(=O)N3CCc4ccccc43)c2)c1,"inconclusive: 5.01 µM [inhibitor, partial curve]",–
N#Cc1cccc(OCC(=O)NC(=O)NCc2ccccc2)c1,"inconclusive: 0.501 µM [inhibitor, full curve, poor fit]",–
C=CCOC(=O)C1=C(C)Nc2ncnn2C1c1cc(Br)ccc1F (centres undefined),"inconclusive: 0.112 µM [inhibitor, full curve, poor fit]",–
COc1cccc(C(=O)CSc2nccn2C)c1,–,inactive: 7.77%
COC(=O)CC1SCCNC1=O (centres undefined),–,inactive: 1.27%
CCc1nc2ccc(C(=O)NCCOc3ccc(OC)cc3)cn2c1N(CC)Cc1ccc(OC)c(OC)c1,"inconclusive: 31.6 µM [inhibitor, single point]",–
COc1ccc(Nc2nc(N3CCCC3)c3ccccc3n2)cc1,"inconclusive: 15.8 µM [inhibitor, partial curve, poor fit]",–
C[C@H](CO)N1C[C@H](C)[C@@H](CN(C)C(=O)Nc2ccccc2)Oc2ccc(NC(=O)Nc3ccc(C(F)(F)F)cc3)cc2C1=O,"inconclusive: 15.8 µM [inhibitor, single point]",–
Cc1ccc(NC(=O)COc2cccc3ccc(C)nc23)c(Br)c1,"inconclusive: 15.8 µM [inhibitor, single point]",–
COc1ccc(CCNS(=O)(=O)c2ccc3c(c2)c(=O)n(C)c(=O)n3C)cc1OC,"inconclusive: 0.631 µM [inhibitor, full curve]",–
CCc1ccc(NC(=O)CC2C(=O)N(c3cccc(C)c3)C(=O)N2Cc2cccc(OC)c2)cc1 (centres undefined),"inconclusive: 0.1 µM [inhibitor, full curve, poor fit]",–
Cc1cc(Cl)ccc1OCCCC(=O)NO,–,inactive: 21.6%
CC1=CC(=O)C(C(C)C)=C/C1=N\OC(=O)c1cccc2nc(C)oc12,"inconclusive: 4.47 µM [inhibitor, single point]",–
CCN1CCCC1CNC(=O)c1ccc2c(c1)N(Cc1cccc(Cl)c1)C(=O)c1ccccc1S2(=O)=O (centres undefined),"inconclusive: 35.5 µM [inhibitor, single point]",–
COc1ccc2cc3cc(C(=O)NCc4cccs4)oc3nc2c1,–,inactive: -9.07%

SMILES,Potency,"activity, negative = inhibition"
O=C(Cc1ccc2c(c1)OCO2)NN=Cc1ccc([N+](=O)[O-])o1,active: 10 µM,–
O=c1[nH]c(=O)n([C@H]2C[C@@H](O)[C@@H](CO)O2)cc1F,"inconclusive: 12.6 µM [inhibitor, partial curve]",–
Cc1cccc(C(=O)NC(=S)N2CCN(c3ccc([N+](=O)[O-])cc3)CC2)c1,"inconclusive: 11.2 µM [inhibitor, partial curve, poor fit]",–
COc1ccc(Cl)cc1C(=O)Nc1ccc([N+](=O)[O-])cc1Cl,–,inactive: 7.48%
COC(=O)C(C)(C)ONC(=O)Nc1ccc(Br)cc1,–,inactive: 6.86%
Cc1[nH]c(=O)[nH]c(=O)c1S(=O)(=O)Nc1cccc(Cl)c1C,–,inactive: 1.44%
CC(Nc1nc(-c2ccccc2O)nc2ccccc12)c1ccccc1 (centres undefined),"inconclusive: 35.5 µM [inhibitor, single point]",–
CC1(c2ccc3ccccc3c2)NC(=O)N(CC(=O)N2CCN(Cc3ccccc3)CC2)C1=O (centres undefined),"inconclusive: 0.562 µM [inhibitor, full curve]",–
COc1cc(-c2ccno2)ccc1S(=O)(=O)N1CCN(c2cccc(Cl)c2)CC1,"inconclusive: 35.5 µM [inhibitor, single point]",–
CC1=C(C(=O)OC2CCCCC2)C(c2cccnc2)n2nnnc2N1 (centres undefined),"inconclusive: 14.1 µM [inhibitor, single point]",–
Cc1ccc(Nc2nc(N)nc(CSC(=S)N3CCOCC3)n2)cc1,–,inactive: 2.48%
COc1ccc(N2CCN(C(=O)C(C)(C)Oc3ccc(Cl)cc3)CC2)cc1,"inconclusive: 7.94 µM [inhibitor, partial curve, poor fit]",–
Nc1cc(OC(=O)c2ccc(F)cc2)nn1S(=O)(=O)c1ccc(F)cc1,–,inactive: 0%
CCc1nc2c(OCc3ccc(OC(F)F)cc3)cccn2c1N(C)C(=O)c1ccc(OC)cc1,–,inactive: -1.04%
COc1ccccc1C1CCN(C(=S)Nc2ccc(Br)cc2)CC1,"inconclusive: 14.1 µM [inhibitor, partial curve, poor fit]",–
COc1ccc(-c2cc(C)no2)cc1S(=O)(=O)NCC1CCN(Cc2cc(C)ccc2C)CC1,"inconclusive: 35.5 µM [inhibitor, single point]",–
Cc1csc(NC(=O)CCC(=O)N(CC(=O)NC2CCCC2)Cc2ccco2)n1,–,inactive: 0.352%
CCCNc1nc(Nc2ccc([N+](=O)[O-])cc2)nc(N2CCOCC2)n1,–,inactive: 13.9%
CC(C)(Cc1ccc(O)cc1)NC(=O)CC(=O)N/N=C/c1ccc(Cl)cc1,–,inactive: -26.2%
Cc1cccc(COCC(CC(C)C)N2CCN(C(=O)c3ccc(C(F)(F)F)cc3)CCC2=O)c1 (centres undefined),"inconclusive: 11.2 µM [inhibitor, single point]",–
COc1ccccc1/C=N/NC(=O)c1ccccc1NS(=O)(=O)c1ccc(C)cc1,"inconclusive: 0.447 µM [inhibitor, full curve, poor fit]",–
COc1cc(Nc2nc(SCc3ccccc3F)nc3ccccc23)cc(OC)c1,"inconclusive: 12.6 µM [inhibitor, partial curve, poor fit]",–
COC(=O)CCn1[nH]c(=O)c2ccccc2c1=O,"inconclusive: 1.26 µM [inhibitor, partial curve, poor fit]",–

SMILES,Potency,"activity, negative = inhibition"
CC(C)Sc1nc2ccccc2n2cnnc12,–,inactive: 15.5%
CCOc1ccccc1NC(=O)CSc1c(C)cnc2c1c(=O)n(C)c(=O)n2C,–,inactive: 21.3%
Cc1ccccc1OCCC(=O)N1CCN(S(=O)(=O)c2ccc(Br)cc2)CC1,"inconclusive: 20 µM [inhibitor, single point]",–
Brc1ccccc1/C=N/Nc1ccccn1,–,inactive: -18.9%
O=S(=O)(c1cccc(C(F)(F)F)c1)N1CCC(CO)(CCCc2ccccc2)CC1,"inconclusive: 35.5 µM [inhibitor, single point]",–
c1ccc(-n2cnc3cc(NCc4cccs4)ccc32)cc1,"inconclusive: 11.2 µM [inhibitor, single point]",–
COc1ccc(C[C@@H]2OC3(C=CC(=O)C=C3)O[C@H]2Cc2ccc(OC)cc2)cc1,active: 2.82 µM,–
COc1c(Cl)cc(Br)c(OC)c1C(=O)NC(=O)Nc1nc(C)cc(C)n1,–,inactive: -5.81%
N#CCS(=O)(=O)c1ccccc1,–,inactive: -3.35%
O=C(Nc1cccc(C(F)(F)F)c1)C1CCCN(S(=O)(=O)c2cccc3nsnc23)C1 (centres undefined),active: 6.31 µM,–
Cc1ccc2c(CC(=O)N3CCN(c4cccc(Cl)c4)CC3)coc2c1,"inconclusive: 22.4 µM [inhibitor, single point]",–
Oc1cccc(C2c3[nH]c4ccccc4c3CCN2Cc2ccoc2)c1 (centres undefined),"inconclusive: 35.5 µM [inhibitor, single point]",–
COc1ccc(C2C(=O)N(C3CCC(C)CC3)CC(=O)N2Cc2ccc(C)cc2)cc1OC (centres undefined),–,inactive: -0.503%
CCCN(CCC)C1=CC(=[N+]2CCCC2)CC(C)(C)C1,"inconclusive: 14.1 µM [inhibitor, partial curve, poor fit]",–
O=C(NCCC1=CCCCC1)C1CC(=O)N(C2CCCCC2)C1 (centres undefined),active: 2.82 µM,–
Cc1cccc(NC(=O)c2ccc3ccccc3n2)c1C,"inconclusive: 35.5 µM [inhibitor, single point]",–
COc1cc2nc(N(CCCN(C)C)C(=O)c3ccc(C(=O)c4ccccc4)cc3)sc2cc1OC,"inconclusive: 22.4 µM [inhibitor, single point]",–
CN(CC(=O)Nc1ccc2c(c1)CCC2)CC(=O)Nc1ccccc1Br,"inconclusive: 35.5 µM [inhibitor, single point]",–
Fc1ccc(CN2CCN(c3ncnc4scc(-c5ccc(F)cc5)c34)CC2)cc1,"inconclusive: 22.4 µM [inhibitor, single point]",–
O=C(NC(=S)Nc1ccccc1O)c1ccc(Cl)cc1Cl,"inconclusive: 22.4 µM [inhibitor, single point]",–
Clc1ccc(-c2cn3cccnc3n2)cc1,"inconclusive: 35.5 µM [inhibitor, partial curve, poor fit]",–
COc1ccc(Cl)cc1C(=O)NNC(=O)c1csc(N2CCOCC2)n1,–,inactive: -4.01%
COc1cccc(-c2cc(NC=O)c3ncc(-c4cc(OC)c(OC)c(OC)c4)n3c2)c1,"inconclusive: 0.112 µM [inhibitor, full curve, poor fit]",–
